Data as given in patent US20040018193A1 (priority 2002, published 2004).

Test system: vaccinia virus
Format: cell-based

With TNF-α the “reduction in virus titers” value was “approximately 50%”.
